According to the supplement of paper PMC6531468:
Some of the results follow. Read counts after selection give these values, which scatter widely. Scores sum up all selected molecules that hold the word; the word was not tested alone.

Experiments:
Assay in all cases: 6-mer SELEX enrichment z-score vs GST control; IMP3 is the RNA-binding protein IGF2BP3; higher = more enriched by binding
IMP3 RRM1-2 = conditions: construct: RRM1-2 (1-163); SELEX round: R2
Procedure: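 SELEX-seq with GST-tagged IMP3 RRM1-2 (Met1-Asn163) and an N40 RNA pool, round 2. 6-mer enrichment z-score normalised to GST SELEX. RNA written as DNA (T = U).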

IMP3 full-length = IMP3 full-length (UniProt O00425); conditions: construct: FL IMP3 (1-579); SELEX round: R4
Chain of UniProt O00425 (O00425 whole entry): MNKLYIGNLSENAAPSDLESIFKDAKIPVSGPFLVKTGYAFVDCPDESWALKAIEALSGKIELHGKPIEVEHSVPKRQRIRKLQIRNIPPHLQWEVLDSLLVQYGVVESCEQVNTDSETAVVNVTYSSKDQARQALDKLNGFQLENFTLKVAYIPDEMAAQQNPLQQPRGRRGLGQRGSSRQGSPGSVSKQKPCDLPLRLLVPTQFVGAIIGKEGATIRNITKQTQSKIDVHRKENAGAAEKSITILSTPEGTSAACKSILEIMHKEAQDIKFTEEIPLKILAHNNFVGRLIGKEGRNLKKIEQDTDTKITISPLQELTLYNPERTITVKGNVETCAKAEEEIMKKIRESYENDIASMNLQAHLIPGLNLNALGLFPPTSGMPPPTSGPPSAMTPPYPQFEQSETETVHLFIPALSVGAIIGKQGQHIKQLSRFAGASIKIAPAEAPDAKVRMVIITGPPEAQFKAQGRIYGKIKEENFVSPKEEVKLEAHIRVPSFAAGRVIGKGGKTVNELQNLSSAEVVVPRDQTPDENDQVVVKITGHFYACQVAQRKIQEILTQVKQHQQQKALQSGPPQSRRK
Procedure: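 SELEX-seq with GST-tagged full-length IMP3 and an N40 RNA pool, round 4. Each 6-mer is scored as an enrichment z-score of sequence tags containing it, normalised to the matching GST SELEX round. RNA written as DNA (T = U).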

IMP3 KH1-2 = conditions: construct: KH1-2 (164-376); SELEX round: R4
Chain of IMP3 KH1-2 (chain, as listed by the source): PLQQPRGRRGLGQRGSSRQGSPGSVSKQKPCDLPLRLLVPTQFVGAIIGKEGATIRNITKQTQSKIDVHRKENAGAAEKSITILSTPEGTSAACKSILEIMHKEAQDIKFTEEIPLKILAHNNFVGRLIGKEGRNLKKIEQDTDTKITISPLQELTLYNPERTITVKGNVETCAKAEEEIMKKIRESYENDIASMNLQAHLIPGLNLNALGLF
Procedure: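 SELEX-seq with GST-tagged IMP3 KH1-2 (Pro164-Phe376) and an N40 RNA pool, round 4 (stringent 300/600 mM KCl washes). 6-mer z-score of sequence-tag enrichment normalised to the corresponding GST SELEX round; RNA k-mers written as DNA (T for U).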

IMP3 KH3-4 = conditions: construct: KH3-4 (377-579); SELEX round: R4
Chain of IMP3 KH3-4 (chain, as listed by the source): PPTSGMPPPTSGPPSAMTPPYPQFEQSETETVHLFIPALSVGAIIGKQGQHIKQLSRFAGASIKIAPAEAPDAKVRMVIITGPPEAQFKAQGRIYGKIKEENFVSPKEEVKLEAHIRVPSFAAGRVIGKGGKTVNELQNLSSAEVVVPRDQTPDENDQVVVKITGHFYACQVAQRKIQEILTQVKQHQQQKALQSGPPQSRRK
Procedure: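 SELEX-seq with GST-tagged IMP3 KH3-4 (Pro377-Lys579) and an N40 RNA pool, round 4. 6-mer z-score of sequence-tag enrichment normalised to the corresponding GST SELEX round; RNA k-mers written as DNA (T for U).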

Chain of IMP3 RRM1-2 (chain, as listed by the source): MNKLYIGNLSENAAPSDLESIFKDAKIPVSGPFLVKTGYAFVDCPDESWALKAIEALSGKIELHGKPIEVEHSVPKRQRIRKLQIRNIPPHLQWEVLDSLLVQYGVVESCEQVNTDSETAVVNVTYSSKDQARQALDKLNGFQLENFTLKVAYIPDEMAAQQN

| Sequence | 6-mer SELEX enrichment z-score (IMP3 RRM1-2) | 6-mer SELEX enrichment z-score (IMP3 full-length) | 6-mer SELEX enrichment z-score (IMP3 KH1-2) | 6-mer SELEX enrichment z-score (IMP3 KH3-4) |
| --- | --- | --- | --- | --- |
| TGGACC | -0.288 | -0.393 | -0.86 | -1.1 |
| TTGCCC | -0.09 | -0.92 | -0.865 | -1.24 |
| TGAGGC | 0.11 | 0.541 | 0.348 | 0.611 |
| GTGTAA | -0.321 | -0.577 | -0.386 | -0.082 |
| CTCTCT | 0.409 | 0.072 | 0.311 | 0.11 |
| TAAGAT | -0.46 | -0.21 | 0.774 | 1.63 |
| CCTATT | 0.154 | -0.187 | 0.342 | 0.261 |
| TCACTG | 0.793 | 0.724 | 0.535 | 0.256 |
| CCCGCC | -0.53 | -0.652 | -0.576 | -1.63 |
| AGTCAT | 0.484 | 0.715 | 0.347 | 0.508 |
| TACAAT | 0.654 | 0.99 | 1.74 | 1.79 |
| ATCCCC | -0.814 | -0.612 | 0.012 | -1.2 |
| TTCCGA | -0.363 | -0.615 | -0.482 | -0.801 |
| TACCAT | 0.301 | 0.168 | 0.296 | 0.099 |
| AAACGA | -2.87 | -2.79 | -2.16 | -1.37 |
| CATTCG | 0.666 | 0.877 | 0.236 | 0.163 |
| GTTCCT | 0.228 | -0.107 | -0.008 | -0.044 |
| ATAGGC | 0.513 | 0.873 | 0.784 | 1.11 |
| TACAAG | 0.081 | 0.182 |  | 0.535 |
| CGAACG | -1.53 | -2.01 | -2.86 | -2.94 |
| TGCCCT | -0.11 | -0.882 |  | -1.11 |
| ACAACG | -0.268 | 0.199 |  | -0.522 |
| AATTGT | -0.342 | -0.238 | 0.237 | 0.76 |
| CGGAAT | -0.526 | -0.317 |  | 0.114 |

| Sequence | 6-mer SELEX enrichment z-score (IMP3 RRM1-2) | 6-mer SELEX enrichment z-score (IMP3 full-length) | 6-mer SELEX enrichment z-score (IMP3 KH1-2) | 6-mer SELEX enrichment z-score (IMP3 KH3-4) |
| --- | --- | --- | --- | --- |
| CTCATT | 1.18 | 0.836 |  | 0.474 |
| AGTGAT | -0.316 | -0.256 | -0.037 | 0.344 |
| AGCCAA | -0.613 | -0.971 |  | -1.51 |
| TGAACC | -1.14 | -1.29 |  | -1.23 |
| ATGATT | -0.199 | 0.177 | 1.31 | 2.21 |
| ACTGCT | 0.009 | 0.053 | 0.661 | 0.186 |
| CTGGCT | 0.322 | 0.167 | 0.014 | 0.052 |
| CGCCCC | -0.751 | -0.418 |  | -1.09 |
| GCAGGG | 0.325 | 0.972 |  | 0.761 |
| CCAGCG | -0.38 | -0.945 | -2.03 | -2.14 |
| AGGCTA | 0.294 | 0.338 | 0.193 | 0.642 |
| GAAAAG | -2.01 | -1.45 |  | 0.222 |
| CCACTG | -0.217 | -0.153 | 0.094 | -0.633 |
| CACCCA | -0.401 | -1.19 |  | -2.33 |
| CGACCG | -1.1 | -0.825 |  | -1.85 |
| AACTGC | -0.794 | -0.538 | 0.205 | -0.344 |
| TTCCTA | 0.029 | -0.139 | 0.494 | 0.423 |
| GTGTCG | 0.363 | 0.124 | -0.293 | -0.223 |
| TTTTGG | 0.441 | -0.015 |  | 0.158 |
| TGTGGA | -0.141 | -0.249 | 0.11 | 0.263 |
| AGACCG | -1.34 | -0.956 | -0.864 | -1.25 |
| GCCCCT | -0.339 | -0.394 | -0.135 | -0.702 |
| ATCTTA | 0.302 | 0.157 | 0.142 | 0.311 |
| TCTAAT | 0.1 | -0.056 |  | 0.58 |

| Sequence | 6-mer SELEX enrichment z-score (IMP3 RRM1-2) | 6-mer SELEX enrichment z-score (IMP3 full-length) | 6-mer SELEX enrichment z-score (IMP3 KH1-2) | 6-mer SELEX enrichment z-score (IMP3 KH3-4) |
| --- | --- | --- | --- | --- |
| GTTACA | 0.359 | 0.293 | 0.188 | 0.117 |
| GGGACG | -0.398 | 0.193 | 0.415 | 0.23 |
| TATTGA | -0.202 | -0.228 | 0.382 | 1 |
| GCATGT | 0.545 | 0.604 |  | 0.314 |
| AAATCG | -1.1 | -1.11 | -1.25 | -0.918 |
| GAGTCG | -0.112 | 0.793 | 0.527 | 0.406 |
| CATCCG | 0.238 | 0.69 |  | -0.863 |
| TATGAC | -0.524 | -0.272 | 0.523 | 0.743 |
| ACTGCG | -0.131 | -0.344 |  | -0.64 |
| AACCGA | -2.17 | -2.19 |  | -2.61 |
| AGTGGG | 0.166 | 0.397 |  | 0.549 |
| CTTCCT | 0.148 | -0.2 |  | 0.213 |
| CTCGGC | 0.394 | 1.45 |  | 0.067 |
| CAGCGC | 0.201 | 0.227 |  | -1.3 |
| AACATG | 0.914 |  | 1.06 | 1.56 |
| CTTAGC | 0.106 |  | -0.368 | -0.394 |
| CGTTGA | -0.335 |  | -0.897 | -0.786 |
| GGCACA | 1.06 |  | 2.7 |  |
| CCTAGT | 0.002 | -0.333 |  | -0.398 |
| CAGATT | 0.078 | 0.465 |  | 0.937 |
| CGGACG | -0.717 |  |  | -1.06 |
| ACTTCG | 0.127 |  | -0.329 | -0.423 |
| GGGTTA | 0.254 | 0.205 |  | 0.395 |
| TGATTG | -0.077 |  | 0.274 | 0.624 |

| Sequence | 6-mer SELEX enrichment z-score (IMP3 RRM1-2) | 6-mer SELEX enrichment z-score (IMP3 full-length) | 6-mer SELEX enrichment z-score (IMP3 KH1-2) | 6-mer SELEX enrichment z-score (IMP3 KH3-4) |
| --- | --- | --- | --- | --- |
| ACGGCA | 0.47 |  | 1.72 | 1.98 |
| TGCTGT | 0.21 |  | 0.381 |  |
| TAAGTT | 0.102 |  | 0.131 | 0.399 |
| GATGCA | -0.244 |  | 0.357 | 0.463 |
| CACCTT |  | -0.22 |  |  |
| CTGTCG | 0.212 | 0.311 |  | -0.075 |
| ATACCT | -0.433 |  | -1.03 | -1.11 |
| CACATA | 3.2 | 3.22 |  | 3 |
| ACTGAG | -0.674 | -0.976 |  | -1.04 |
| GAGGAT | -0.28 |  | 0.63 | 0.897 |
| ATACAT | 1.69 | 2.34 |  | 3 |
| TTGGTC | 0.525 |  | 0.025 | 0.073 |
| CAATAC | 0.847 |  |  | 0.606 |
| ACCTTA | -0.554 | -0.988 |  | -0.615 |
| CTACCT | -0.244 | -0.906 |  | -0.972 |
| TTGAGA | -0.357 |  | -0.602 | -0.192 |
| ACCTAC | -0.551 |  | -1.17 | -1.6 |
| CGGCAC | 0.482 |  | 1.97 | 1.96 |
| CGGCCA | 0.065 | 2.65 |  | 2.49 |
| ACTATT | 0.184 | 0.25 |  | 1.88 |
| TCAGGT | 0.833 |  | 0.103 | 0.198 |
| GCACTA | 0.4 |  | 0.814 | 0.973 |
| AAGCCA |  | -0.642 | -0.574 |  |
| CCTTAC | -0.129 | -0.617 |  | -0.514 |

| Sequence | 6-mer SELEX enrichment z-score (IMP3 RRM1-2) | 6-mer SELEX enrichment z-score (IMP3 full-length) | 6-mer SELEX enrichment z-score (IMP3 KH1-2) | 6-mer SELEX enrichment z-score (IMP3 KH3-4) |
| --- | --- | --- | --- | --- |
| GGCCCG | -0.315 |  | -0.276 | -0.735 |
| CCGTCC |  | 0.122 | -0.165 | -0.923 |
| AAAACC |  | -3.73 |  | -2.93 |
| GAATGC |  | -0.542 | -0.157 | 0.007 |
| CTCGAT |  | -0.453 | -0.931 | -0.868 |
| ACACAT |  |  |  | 2.75 |
| ACGTAC |  | -0.646 | -1.21 | -1.34 |
| GCCGCG |  | 0.358 | -0.009 | -0.259 |
| TCGTCG |  | 0.361 | -0.161 | -0.111 |
| CACACA |  |  |  | 1.92 |
| AATCAT |  | 2.66 | 1.37 | 1.5 |
| GACACG |  | 0.355 | -0.116 | -0.342 |
| ATAATG |  | 0.044 | 1.18 | 2.36 |
| GCTTTG |  | 0.052 | 0.086 | 0.192 |
| AAGAGG |  | 0.059 | 0.862 | 1.32 |
| AGAGTA |  | -0.291 | -0.389 | -0.071 |
| ATGCTA |  | -0.126 | 0.294 | 0.471 |
| AAAGCA |  | -0.534 | -0.796 | -0.567 |
| CCCTTC |  | -0.324 | 0.016 | -0.616 |
| CCTGGA |  | -0.79 | -0.745 | -0.926 |
| AACACA |  |  |  | 2.57 |
| GGAAAT |  | -0.418 | 0.384 | 1.13 |
| AAGAAT |  |  | 0.799 | 2.17 |
| CAAACA |  | 2.07 | 0.76 | -0.148 |
